Measured values taken from PMC4336329 (PLoS ONE, 2015).
Hit rate of the full screen: of about 310,000 compounds, about 14,000 (4.5%) showed an effect of 50% or more. Effects have a minus sign here. Some of the results follow.

Target: human ether-à-go-go-related gene (hERG) potassium channel (human, UniProt Q12809)
Experiment: primary screen, population patch clamp on CHO cells stably expressing hERG
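Also: peak tail current of the secondary pulse compared with the same well before compound.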

Sequence of human ether-à-go-go-related gene (hERG) potassium channel (Q12809 whole entry, looked up): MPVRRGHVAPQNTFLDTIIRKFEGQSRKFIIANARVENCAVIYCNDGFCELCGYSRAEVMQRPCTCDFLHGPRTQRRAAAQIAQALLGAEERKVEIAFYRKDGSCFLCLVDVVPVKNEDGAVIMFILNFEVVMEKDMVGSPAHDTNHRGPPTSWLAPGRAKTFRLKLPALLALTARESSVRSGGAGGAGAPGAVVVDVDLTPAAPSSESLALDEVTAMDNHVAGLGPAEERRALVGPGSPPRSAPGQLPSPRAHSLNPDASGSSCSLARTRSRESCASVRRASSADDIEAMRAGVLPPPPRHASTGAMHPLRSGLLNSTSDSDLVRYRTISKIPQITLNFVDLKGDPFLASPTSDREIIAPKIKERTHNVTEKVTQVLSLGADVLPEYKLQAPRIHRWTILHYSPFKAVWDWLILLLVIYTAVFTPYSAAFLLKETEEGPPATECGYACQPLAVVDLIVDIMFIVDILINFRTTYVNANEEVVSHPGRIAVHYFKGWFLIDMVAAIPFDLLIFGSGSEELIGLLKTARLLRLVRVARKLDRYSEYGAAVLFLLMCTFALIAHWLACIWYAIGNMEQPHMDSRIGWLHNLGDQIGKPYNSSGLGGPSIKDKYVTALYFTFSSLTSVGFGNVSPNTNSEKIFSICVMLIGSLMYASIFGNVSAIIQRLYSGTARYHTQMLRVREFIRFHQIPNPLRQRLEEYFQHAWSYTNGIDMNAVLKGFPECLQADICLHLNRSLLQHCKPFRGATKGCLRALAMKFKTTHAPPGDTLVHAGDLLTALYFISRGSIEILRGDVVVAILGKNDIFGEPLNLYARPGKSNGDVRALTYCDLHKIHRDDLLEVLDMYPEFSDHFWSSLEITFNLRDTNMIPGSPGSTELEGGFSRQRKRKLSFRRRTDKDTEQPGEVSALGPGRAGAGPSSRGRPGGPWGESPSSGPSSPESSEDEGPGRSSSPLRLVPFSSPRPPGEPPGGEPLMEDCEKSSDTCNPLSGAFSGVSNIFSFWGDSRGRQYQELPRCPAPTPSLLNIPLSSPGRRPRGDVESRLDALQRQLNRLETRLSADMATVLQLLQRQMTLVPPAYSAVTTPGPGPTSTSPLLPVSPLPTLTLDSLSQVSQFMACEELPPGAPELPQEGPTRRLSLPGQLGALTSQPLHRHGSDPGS

Row | Compound | hERG current change (%, negative = inhibition) at 10uM [%]
1 | COc1ccc(OC)c(NC(=O)c2cccc(N3C(=O)C4C5CCC(C5)C4C3=O)c2)c1 (centres unmarked) | -40.5
2 | c1ccc(Cc2nn3c(-c4ccncc4)nnc3s2)cc1 | -38.6
3 | COc1ccc([C@H]2CC(=O)C=C(c3ccc(F)nc3)C2)cc1OC | -16.2
4 | CC(/C=N/NC(=O)c1ccncc1)=C\c1ccccc1 | 9.78
5 | COc1cccc(CN(C)C(=O)c2ccc(COc3ccc(Cl)cc3)cc2)c1OC | 16.8
6 | Cc1ccc(-c2nnc(Nc3ccc(C(=O)N(C)C)cc3)c3ccccc23)cc1S(=O)(=O)NC(C)(C)CO | 9.39
7 | CCOC(=O)N1CCC(c2cc(=O)n3[nH]c(C)c(-c4ccc(F)cc4)c3n2)CC1 | 12.4
8 | CCOCc1[nH]c(=S)[nH]c(=O)c1Cc1ccc(OCC)cc1 | 9.49
9 | Cc1ccc(SC2CCN(C(=O)C3CCC(=O)N(C4CC4)C3)CC2)cc1 (centres unmarked) | -39.3
10 | CCOC(=O)C1CN(S(=O)(=O)c2ccccc2)c2cc(S(=O)(=O)CC)ccc2O1 (centres unmarked) | -23.3
11 | COc1ccc(/C=N/NC(=O)c2ccncc2)cc1CN1CCCc2ccccc21 | -26.1
12 | Cc1cc(C)c2c3c(oc2n1)C(=O)N(c1cccc(Cl)c1)CC(=O)N3 | 1.82
13 | COc1cccc(-n2nc(-c3ccnn3-c3ccccc3)c(=O)n(C)c2=O)c1 | -19.7
14 | O=C(Nc1ccc2c(c1)OCO2)Nc1ccc2c(c1)OCO2 | 15.3
15 | CS(=O)(=O)c1nc(S(=O)(=O)c2ccc(Cl)cc2)c(N2CCC(O)CC2)s1 | -13.9
16 | O=C(C1CC(=O)N(c2ccc(Cl)cc2)C1)N1CCC(c2nc3ccccc3[nH]2)CC1 (centres unmarked) | -71.6
17 | CCN(CC)S(=O)(=O)c1ccc(Cl)c(C(=O)NCc2ccccc2Cl)c1 | -24.7
18 | CC(=O)Nc1cccc(NC(=O)C(=O)NCC(c2ccco2)N2CCc3ccccc3C2)c1 (centres unmarked) | -17.2
19 | CCc1cc(=O)oc2c(C)c(O)c(CN(C)C)cc12 | 4.98
20 | CCOC(=O)c1cnc2c(C)cc(Cl)cc2c1N1CCN(C)CC1.Cl | -19.6
21 | COc1ccc(-n2cc(C(=O)c3cc4ccccc4oc3=O)c(C(C)=O)n2)cc1 | 10.5
22 | c1ccc2c(c1)[nH]c1c(N3CCSCC3)ncnc12 | -4.82

Row | Compound | hERG current change (%, negative = inhibition) at 10uM [%]
23 | COCCCNC(=O)Cn1c(=O)n(CC(=O)NCCc2ccc(OC)c(OC)c2)c(=O)c2sccc21 | 2.38
24 | CC(C(=O)NCc1ccc2c(c1)OCO2)N1c2cccc3cccc(c23)S1(=O)=O (centres unmarked) | -22.7
25 | CC1(C)Oc2ccc3ccc(=O)oc3c2CC1O (centres unmarked) | 20.8
26 | Cc1ccc(N2CCN(CCCN3C(=O)C4CCCN4C3=O)CC2)cc1.Cl (centres unmarked) | -7.45
27 | COc1cc2[nH]c(=S)n(Cc3cccs3)c(=O)c2cc1OC | 21.5
28 | N#CC(C#N)=Cc1ccc(-c2ccc(S(=O)(=O)N=C(N)N)cc2)o1 | -8.1
29 | Oc1cc(O)c2c(c1)O[C@H](c1ccc(O)c(O)c1)[C@H](O)C2 | -7.42
30 | COc1ccccc1Cn1c(=S)[nH]c2ccc(Br)cc2c1=O | 17.7
31 | O=[N+]([O-])c1ccccc1OCCOc1ccccc1[N+](=O)[O-] | 9.27
32 | O=C(Cn1nc(C(=O)O)c2ccccc2c1=O)Nc1nc(-c2ccccc2)cs1 | -12.1
33 | COc1ccc(CN2CCN(C(=O)c3cccs3)CC2)c(OC)c1OC | -6.53
34 | CCN1CCCC1CNC(=O)C(=O)NC (centres unmarked) | 15.7
35 | CCOC(=O)c1c(-c2ccc(C)o2)csc1N | 20.5
36 | CC(Oc1ccc(Br)cc1)C(=O)NC1CCCCCC1 (centres unmarked) | -12.4
37 | COc1ccc(OC)c(CN(CCN2CCOCC2)C(=O)Nc2ccccc2)c1 | -10.1
38 | CCOC(=O)C(O)(c1ccc(NC(=S)NC(=O)c2ccc(Cl)cc2Cl)c(C)c1)C(F)(F)F (centres unmarked) | 27.4
39 | CCn1cc(C(=O)Nc2ccc(C)c([N+](=O)[O-])c2)cn1 | -4.55
40 | COc1cc(OC)cc(-c2c(-c3cccs3)c3cc(-c4ccc(OC)c(F)c4)ccc3n2C)c1 | 12.3
41 | CC1=NN(C(N)=S)C(=O)C1N=Nc1ccccc1C (centres unmarked) | 23.9
42 | COc1ccccc1C(=O)Nc1ccccc1C(=O)Nc1ccccc1 | 9.77
43 | COc1ccccc1NC(=O)CSc1nnc(NC(=O)c2ccco2)s1 | -1.03
44 | O=C(COC(=O)C(O)c1ccccc1)NC12CC3CC(CC(C3)C1)C2 (centres unmarked) | -0.0519

Row | Compound | hERG current change (%, negative = inhibition) at 10uM [%]
45 | Cc1cc(NC(=O)c2cnn3c(C(F)(F)F)cc(-c4ccc(Br)cc4)nc23)no1 | 24.4
46 | CCOC(=O)c1ccc(NC(=O)N2CCN(c3ccccc3OC)CC2)cc1 | 11.4
47 | O=C(/C=C/c1ccco1)N(Cc1cccc(Cl)c1)C1CCS(=O)(=O)C1 (centres unmarked) | -10.2
48 | Cc1cc(C)cc(COc2ccc3c(C)c(CC(=O)O)c(=O)oc3c2C)c1 | -41.4
49 | Cc1ccc(S(=O)(=O)Nc2ccc(-c3nnc(SCC#N)n3C)cc2)cc1 | -11.3
50 | O=C(O)COc1ccccc1/C=N/NC(=O)CSc1nc2ccccc2n1Cc1ccccc1 | 3.79
51 | CCN(CC)CCCN(C(C)=O)c1nc(-c2cc(OC)ccc2OC)cs1.Cl | -65.8
52 | COc1ccc(N2C(=O)/C(=C/c3ccc([N+](=O)[O-])cc3)C=C2c2ccccc2)cc1 | -4.49
53 | C=CCNC(=S)NNC(=O)c1csc(CC)c1 | 2.41
54 | COc1ccc(NC(=O)CN(C)S(=O)(=O)c2cccc3nsnc23)cc1OC | -10.3
55 | COc1cc(CC(=O)O)ccc1O | -5.48
56 | CCNC(=O)CC1C(=O)N(CC)C(=S)N1NC(=O)c1ccccc1 (centres unmarked) | 19.9
57 | COC(=O)c1cn[nH]c1NC(=S)Nc1ccc(C)cc1Cl | 4.08
58 | COC(=O)c1c(NC(=O)CSc2n[nH]c(N)n2)sc(C)c1C | 5.79
59 | CC(=O)Nc1ccc(Nc2nc(-c3ccccc3)nc3ccccc23)cc1 | 19.2
60 | CCN(C(=O)COC(=O)c1ccc(N2C(=O)c3ccccc3C2=O)cc1)C1CCS(=O)(=O)C1 (centres unmarked) | 13.1
61 | CC(C)C(O)(C#CCN1CCCCC1)C(C)C | -1.16
62 | CCc1nc(SCc2ccc(C(=O)OC)o2)c2c(=O)n(C)c(=O)n(C)c2n1 | -4.89
63 | O=C(NC1C(=O)NNC1c1ccccc1)c1ccc(F)cc1 (centres unmarked) | 11.4
64 | Cc1ccccc1NC(=O)COC(=O)Cc1ccsc1 | 12.7
65 | Cc1ccc(OCC(=O)Nc2ccc(S(=O)(=O)N3CCCC3)cc2)cc1 | 15.5
66 | CCCN(CCC)CCCNC(=O)C(NS(=O)(=O)c1ccc2c(c1)CCC(=O)N2)c1ccccc1 (centres unmarked) | 20.5

Row | Compound | hERG current change (%, negative = inhibition) at 10uM [%]
67 | CC1CCC2(CC1)NC(=O)N(CC(=O)N1CCc3ccccc3C1)C2=O (centres unmarked) | 34.7
68 | Cc1ccc([N+](=O)[O-])cc1Nc1nc(N2CCOCC2)nc(N2CCOCC2)n1 | -13.5
69 | CCC(NC(=S)NCc1ccc(F)cc1)c1ccc(C(C)C)cc1 (centres unmarked) | 22.4
70 | CC(=O)NC(Cc1ccccc1)C(=O)OCC(=O)c1ccc(Br)cc1 (centres unmarked) | 17.4
71 | CC(C)c1ccc(S(=O)(=O)N2CCN(C(=O)C3CCCC3)CC2)cc1 | 2.78
72 | CNS(=O)(=O)c1cc(NC(=O)c2cnc(SC)n2-c2ccccc2)ccc1C | 20.6
73 | Clc1cccc(CN2CCC(Cc3ccccc3)CC2)c1 | -27.9
74 | O=C(c1cnccn1)N1CCCC(N2CCN(c3cccc(Cl)c3)CC2)C1 (centres unmarked) | -18.7
75 | CC1CCC(NC(=O)CN2CCCN(Cc3ccc(F)cc3Cl)C2=O)CC1 (centres unmarked) | -6.87
76 | CCN(CC)C1CC(=O)N(c2cccc(Cl)c2)C1=O (centres unmarked) | 17.2
77 | Cc1ccc(-c2nnn(CC(=O)N(CCCO)C(C(=O)NC3CCCC3)c3ccc(Cl)cc3)n2)o1 (centres unmarked) | 15.7
78 | O=C(Cn1nnc(-c2ccccc2)n1)NCc1ccc2c(c1)OCO2 | 19.1
79 | O=C(Nc1cc(S(=O)(=O)N2CCOCC2)ccc1N1CCCCC1)c1ccccc1 | -16.9
80 | CC(=O)Nc1cccc(OCc2ccc(S(=O)(=O)Cc3ccccc3)cc2)c1 | 0.707
81 | CCCC1(C(=O)OCC)NC(c2ccco2)C2C(=O)N(C)C(=O)C21 (centres unmarked) | 7.55
82 | COc1ccc2c(c1)CCc1cn3ncc(C#N)c3nc1-2 | 9.34
83 | Cc1noc(NS(=O)(=O)c2ccc(NC(=O)CSc3nc4ccccc4s3)cc2)c1C | -2.99
84 | Cc1ccc(NC(=O)CSc2nnc(-c3ccncc3)o2)cc1 | 18
85 | CN(CC(=O)NC1CCCCCC1)S(=O)(=O)c1ccc(F)cc1 | 8.76
86 | Nc1nc(CN2CCN(c3ccc(F)cc3)CC2)nc(N2CCCc3ccccc32)n1 | -52.9
